Results as given in PubChem BioAssay AID485313 (National Center for Advancing Translational Sciences (NCATS), 2010).
Among all 320,000 compounds or so, about 7,600 (2.4%) were called active. The shares of active, inactive and inconclusive entries below differ from those in the screen. The call rests on the fitted dose curve; in most records, active means well fitted activation curve with a large enough effect; inconclusive means small, poorly fitted or top-dose-only effect; inactive means no such curve, though single readings can be large or run the other way. No potency is given beside an inconclusive call; the fits are too rough.

Assay: qHTS Assay for NPC1 Promoter Activators; further: nearly all actives have a fitted effect of over 60% in size
Details: Huh7 NPC1 promoter luciferase reporter, 24 h; series mostly up to 9.22 µM
Method in brief: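 Luciferase expression driven by the NPC1 promoter was measured in stably transfected Huh7 cells after a 24 h compound incubation, using a luciferase reagent and a luminescence read.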
Potency means the concentration at half of the fitted maximal effect; tags describe the fitted curve by direction and shape.

Row | SMILES | Potency
1 | O=C(NCc1ccccc1F)C1CCCN(S(=O)(=O)N2CCOCC2)C1 (stereo not given) | inconclusive [activator, single point]
2 | CCOc1ccc(N(CC(=O)Nc2ccc(OC)cc2)S(C)(=O)=O)cc1 | inconclusive [activator, single point]
3 | CCOc1cccc(C(=O)NC(=S)Nc2ccccc2)c1 | inconclusive [activator, single point]
4 | Cc1ccc2oc(-c3ccc(NC(=O)c4cccnc4)cc3)nc2c1 | active: 2.51 µM
5 | COc1cccc(NC(=O)NC2CCCCCCC2)c1 | active: 3.55 µM
6 | O=C(Nc1ccc(CN2CCOCC2)cc1)c1cccc(F)c1 | active: 2.82 µM
7 | CCn1c2ccccc2c2cc(NC(=O)C(=O)N3CCOCC3)ccc21 | inconclusive [activator, partial curve]
8 | Cc1cc(C)c2nc(N3CCCC(C(=O)NCCN4CCOCC4)C3)sc2c1 (stereo not given) | inconclusive [activator, single point]
9 | COC(=O)C1=C(O)/C(=C\c2cc(C)n(-c3ccccc3C)c2C)N=C1C | inconclusive [activator, partial curve]
10 | CCOc1ccc(NC(=O)Nc2cccc(C(=O)O)c2)cc1 | inconclusive [activator, full curve, poor fit]
11 | O/N=C/c1ccc2ccccc2n1 | inconclusive [activator, single point]
12 | O=C(NC1CC1)C(=O)c1c[nH]c2ccccc12 | inactive
13 | CC(C)(C)/C(O)=C(/C#N)c1nc2ccccc2[nH]1 | inactive
14 | CCCNC(=O)C1(O)c2cc(Br)ccc2NC(=O)N1c1ccc(Cl)cc1 (stereo not given) | inactive
15 | Cn1c2ccccc2c(=O)c2cc(C#Cc3ccc(N)cc3)ccc21 | inconclusive [activator, single point]
16 | Cc1cccc(NC(=O)Nc2ccc(C)c(C)c2)n1 | inconclusive [activator, partial curve]
17 | COc1cccc(Nc2ccc(C(=O)O)cc2N)c1 | inconclusive [activator, partial curve]
18 | COc1ccc(CC(=O)O/N=C(\N)c2ccc(C)cc2)cc1 | inconclusive [activator, single point]
19 | Cc1ccc2oc(C(=O)NCC3CCOCC3)c(C)c2c1 | inconclusive [activator, partial curve]
20 | COc1ccc2nc(Nc3ccc4c(c3)OCO4)sc2c1 | inconclusive [activator, partial curve]
21 | CCCCCCc1cc2cc(-c3nnc(-c4ccccc4OC)o3)c(=O)oc2cc1O | inactive
22 | COC(=O)Cc1ccc(OC(=O)C2CCN(S(=O)(=O)c3ccc(OC)c(OC)c3)CC2)cc1 | inactive
23 | Cc1c(C(=O)N2CCOCC2)c(S(=O)(=O)Nc2cccc(C#N)c2)c(C)n1C | inactive
24 | CC(C)(O)C(=O)N=Nc1c(O)[nH]c2ccccc12 | inconclusive [activator, partial curve]
25 | c1cncc(CSc2ccc(-c3cccs3)nn2)c1 | inconclusive [activator, single point]

Row | SMILES | Potency
26 | Cc1ccc(C)c(C(C)NC(=O)c2ccc(Br)o2)c1 (stereo not given) | inactive
27 | CC(C)Oc1ccccc1/C=N/Nc1ccccc1[N+](=O)[O-] | inconclusive [activator, single point]
28 | O=C(CSc1nc2ccccc2s1)c1ccc(O)cc1O | inconclusive [activator, single point]
29 | O=C(Nc1ccc2c(c1)OCO2)C1CCCCC1 | inconclusive [activator, partial curve]
30 | CC(C)(C)NC(=O)c1ccccc1-c1nc2ccccc2s1 | inactive
31 | Cc1ccc(/C=C/C(=O)Nc2cc(C)on2)cc1 | active: 2.51 µM
32 | COc1ccc(/C=C2\SC(N3CCCCC3)=NC2=O)cc1 | inconclusive [activator, single point]
33 | Cc1ccc(OCc2cc(C(=O)N3CCCCCCC3)no2)cc1C | inconclusive [activator, single point]
34 | CCOc1cc(/C=N/NC(N)=O)cc(Br)c1OCC(=O)Nc1ccccc1C | inconclusive [activator, single point]
35 | O=C(NCCc1ccccc1)c1ccccc1NC(=O)C1CCCCC1C(=O)O (stereo not given) | inconclusive [activator, partial curve]
36 | Cc1ccnc(NC(=O)c2ccc(N3C(=O)CCC3=O)cc2)c1 | inconclusive [activator, partial curve]
37 | O=C(Nc1ccc([N+](=O)[O-])cc1)OCCc1ccccn1 | active: 3.55 µM
38 | Cn1c(=O)[nH]c(=O)c2c1nc(N1CCOCC1)n2CCN1CCOCC1 | inactive
39 | Nc1nc(=S)c2[nH]cnc2[nH]1 | inactive
40 | N#Cc1c(NC(=O)/C=C/c2ccco2)sc2c1CCCC2 | inconclusive [activator, single point]
41 | CCOc1ccc(Nc2nc(-c3sc(N)nc3C)cs2)cc1 | inconclusive [activator, single point]
42 | Cc1ccc(C(=O)Nc2ccc(OCc3ccccc3)cc2)s1 | inconclusive [activator, single point]
43 | CCOc1ccc(Nc2n[nH]c(=S)s2)cc1 | active: 2.51 µM
44 | Clc1ccc(-c2nc3ccncc3[nH]2)cc1 | inconclusive [activator, single point]
45 | CCOC(=O)c1c(N)sc(C(=O)Nc2ccc3c(c2)OCO3)c1C | active: 0.316 µM
46 | CCc1ccc(OCc2ccc(C(=O)OC)o2)cc1 | inconclusive [activator, partial curve, poor fit]
47 | CC(/C=C1\SC(=S)N(CC(=O)O)C1=O)=C\c1ccccc1 | inconclusive [activator, single point]
48 | CCOC(=O)c1sc(=NC(=O)c2ccc(Cl)s2)n(C)c1C | inconclusive [activator, partial curve]
49 | Cc1ccc(COc2ccc(-c3nnco3)cc2)cc1 | active: 2.24 µM
50 | NC(=O)c1ccccc1NC(=O)/C=C/c1cccc(Cl)c1 | active: 3.16 µM

Row | SMILES | Potency
51 | COc1ccccc1NC(=O)COc1ccc(CO)cc1Cl | inconclusive [activator, single point]
52 | Cc1ccc(Nc2ccccc2)cc1 | inactive
53 | C/C(=N\Nc1nc2ccccc2[nH]1)c1ccc([N+](=O)[O-])cc1 | inactive
54 | Cc1cc(C)cc(NC(=O)COC(=O)c2n[nH]c3ccccc23)c1 | inconclusive [activator, partial curve]
55 | Cn1c(=S)[nH]c2sc3c(c2c1=O)CCC(C(C)(C)C)C3 (stereo not given) | inconclusive [activator, partial curve]
56 | COc1ccc(OCc2cc(/C=N\NC(=O)c3ccccc3)ccc2OC)cc1 | inconclusive [activator, partial curve]
57 | S=C(Nc1ccc(Cl)cc1Cl)NC1CCCCC1 | inconclusive [activator, partial curve]
58 | C/C(=C\c1ccccc1F)C1Nc2cccc3cccc(c23)N1 | inconclusive [activator, single point]
59 | Cc1ccc(Nc2nc3c(c(=O)[nH]2)CCCC3)cc1 | inconclusive [activator, single point]
60 | Cc1c(C(=O)NC2CC(=O)N(c3ccc4c(c3)OCCO4)C2)cccc1[N+](=O)[O-] (stereo not given) | inactive
61 | COc1ccc2[nH]c(C(=O)Nc3ncc(C)cc3Br)cc2c1 | inactive
62 | Cc1ccc(NC(=O)NCc2cccn2C)cc1C | active: 3.98 µM
63 | Cc1ccc(OCc2cc(C(=O)N3CCC(c4ccccc4Cl)C3)no2)cc1C (stereo not given) | inconclusive [activator, single point]
64 | Nc1c(C(=O)Nc2ccc3c(c2)OCCO3)nnn1Cc1ccc(F)cc1 | active: 2.51 µM
65 | Cc1cc(OCc2cc(C(=O)NC(C)c3c(C)nn(C)c3C)no2)cc(C)c1Cl (stereo not given) | active: 2.51 µM
66 | CCCN=C(C)C1=C(O)c2ccccc2C1=O | inconclusive [activator, partial curve]
67 | COc1ccc(C(CC(=O)c2ccc(O)cc2)S(=O)(=O)c2ccc(C)cc2)cc1 (stereo not given) | inconclusive [activator, single point]
68 | O=C(CSc1nnc(-c2cccc(F)c2)o1)N1CCCC1 | inconclusive [activator, partial curve]
69 | Cc1nc(-c2ccccc2)nc2[nH]c(=O)n(-c3ccccc3)c(=O)c12 | inconclusive [activator, partial curve]
70 | CN(Cc1ccccc1)C(=O)C(C(=O)c1ccc(F)cc1)n1cc(Cl)ccc1=O (stereo not given) | inconclusive [activator, single point]
71 | Cc1cc(C(=O)NCC(=O)Nc2c(C)cccc2C)c(C)o1 | inactive
72 | O=C(c1cc(-c2ccccc2O)on1)N1CCCC1 | inconclusive [activator, partial curve]
73 | CCOc1cc(/C=N/Nc2ccc(C(=O)O)cc2)ccc1OC(=O)c1ccccc1C | active: 1.41 µM
74 | CCN(CC)C(=O)CSc1ncnc2sc(-c3ccccc3)cc12 | inconclusive [activator, single point]
75 | CCCCN1C=CC(=C2N=c3cccc([N+](=O)[O-])c3=N2)C=C1 | inconclusive [activator, partial curve]
